Out of some 150,000 compounds screened, about 540 (0.36%) showed an effect of 50% or more. The list shows a part of the results.

The subject of this assay is Plasmodium falciparum. In words: Primary screen in NF54 nanoGlo assay, in single point, at 2uM, 72h; a lower Z score goes with more inhibition. Format: functional, Erythrocyte. The note with it: timepoint 72 hour.
As for `CC[C@@H]1NC(=O)N(CC2(CC#N)CC2)C1=O`, the “% Inhibition” value is -4% and the Z score amounted to 0.4.

In the case of `COc1cccc(CNC(=O)Nc2c(-c3ccncc3)[nH]c3ccc(Cl)cc23)c1`, the “% Inhibition” value is 11% and the Z score was -1.77.

Take `CCC(=O)Nc1ccc(Cl)c(OC)c1`: the “% Inhibition” value is -5% and the Z score was found to be 0.68.

Take `OC[C@H]1CN(Cc2cncc(F)c2)CCN1Cc1cncc(F)c1`: the “% Inhibition” value was -9% and the Z score was determined as 1.07.

As to `CC1(C)CCC(=O)[C@@H](CNC(=O)OC(C)(C)C)C1`, the “% Inhibition” value was -2% and the Z score is given as 0.22.

Regarding `Cc1cc(Nc2nnn[nH]2)nc(Cc2ccccc2)n1`, the “% Inhibition” value was -4% and the Z score amounted to 0.38.

Turning to `O=C1CC[C@@H](C(=O)N(C2CCCC2)C2CC2)N1`, the “% Inhibition” value was 2% and the Z score is listed as -0.3.

As for `CCc1ccc2[nH]c3c(c(=O)c2c1)CN(CC(=O)NCc1ccc(Cl)cc1)CC3`, the “% Inhibition” value turned out to be 1% and the Z score is given as -0.07.

With `Cc1ccc(OCCN2CC[C@@]3(C2)NC(=O)N(C(C)C)C3=O)cc1`, the “% Inhibition” value worked out at 15% and the Z score is -1.69.

With `CCC1(CNC(=O)c2coc3cc(F)ccc23)COC1`, the “% Inhibition” value is -8% and the Z score was found to be 1.04.

As for `Cc1cc(CN2CCC(CNC(=O)c3cncs3)CC2)n[nH]1`, the “% Inhibition” value was -8% and the Z score is recorded as 1.13.

Turning to `C=CCC1(CC=C)CCCN1C(=O)[C@H]1CCC(=O)N(CCN2CCOCC2)C1`, the “% Inhibition” value is listed as -9% and the Z score was found to be 1.24.

`Cc1ncc(CN(C)CC(=O)N2CCC(O)CC2)s1`: the “% Inhibition” value is given as -10% and the Z score turned out to be 1.32.

As to `COc1ccccc1C1(CNC(=O)CS(=O)(=O)Nc2ccc(N3CCCCC3)cc2)CCCC1`, the “% Inhibition” value was -6% and the Z score turned out to be 1.26.

`CC(C(=O)Nc1ccc(Cl)cn1)N1CCCC(c2ccn[nH]2)C1` (stereo unspecified): the “% Inhibition” value came to 5% and the Z score is recorded as -0.83.

Regarding `O=C(c1ccc2c(c1)CCCC2)N1CCC[C@]2(CC=CCC2)C1`, the “% Inhibition” value is reported as -5% and the Z score is reported as 0.44.

Take `C[C@@H]1CN(CC(=O)NCCCn2ccnn2)C[C@H](C)O1`: the “% Inhibition” value is -10% and the Z score was 1.12.

On to `O=C([C@@H](F)C(F)(F)F)N(Cc1ccccc1)C1CC1`, for which the “% Inhibition” value is -13% and the Z score came out at 1.74.

Take `Cc1[nH]ccc(=O)c1OCC(=O)NC1CCN(Cc2ccccc2)CC1`: the “% Inhibition” value is -15% and the Z score was determined as 1.92.

For `COc1ccc(CNC(=N)NS(=O)(=O)c2ccc(OC)c(OC)c2)c(OC)c1`, the “% Inhibition” value is given as 36% and the Z score was -0.99.

On to `COCCNC(=O)CN1C(=O)CCn2nc(-c3ccc(C)cc3)cc21`, for which the “% Inhibition” value came to 4% and the Z score is recorded as -0.49.

Turning to `Cc1cc(C(=O)N2CCC3(CC2)C[C@@H](c2ccccc2)C(=O)N(C)C3)no1`, the “% Inhibition” value came out at 3% and the Z score is given as -0.39.

Turning to `O=C([C@@H]1COc2cc(S(=O)(=O)Nc3ccc(F)cc3)ccc2O1)N1CCCCC1`, the “% Inhibition” value is given as -14% and the Z score stood at 2.32.

Consider `COc1cc(F)ccc1[C@H](C(=O)O)N1CCC(Oc2cccc(F)c2)CC1`, for which the “% Inhibition” value is on record as -10% and the Z score was found to be 1.94.

As to `c1cnn(-c2ccc(CN3C[C@@H]4CC[C@H]3CN(C3CCOCC3)C4)cc2)c1`, the “% Inhibition” value was found to be 8% and the Z score is -1.33.

Regarding `CC(C)CN(C(=O)c1nc(=O)[nH][nH]1)C1CC1`, the “% Inhibition” value stood at 8% and the Z score is on record as -0.67.

For `c1coc(-c2nc(COc3ccc4oc5ccccc5c4c3)cs2)c1`, the “% Inhibition” value is listed as -2% and the Z score was found to be 0.24.

Regarding `Cc1ccsc1C(=O)N1CCCn2cc(-c3ccccc3)nc21`, the “% Inhibition” value was 0% and the Z score is given as 0.01.

Consider `O=S(=O)(c1ccc(-c2cc(C(F)(F)F)[nH]n2)o1)N1CCCC[C@H]1c1nccs1`, for which the “% Inhibition” value is -4% and the Z score stood at 0.81.

As to `CCN(C(=O)c1ccnc(C)n1)[C@@H](Cc1ccc(C)cc1)C1CC1`, the “% Inhibition” value came out at 8% and the Z score is reported as -1.01.

As for `O=C(NC[C@H]1CCCC2(CCC2)O1)c1c(Cl)oc2ccccc12`, the “% Inhibition” value came out at 10% and the Z score is -1.33.

As to `CC(C)n1cc(C(=O)N2CCC(c3nc4ccccc4o3)CC2)cn1`, the “% Inhibition” value is on record as -11% and the Z score is listed as 1.3.

`COCc1noc(C2CC(O)(c3cccc(Cl)c3)C2)n1` (stereo unspecified): the “% Inhibition” value is listed as -6% and the Z score is given as 0.93.

Turning to `C=CCN(Cc1ccc(F)cc1)Cc1cnc(NCC(=O)O)nc1`, the “% Inhibition” value came to 7% and the Z score is given as -1.

Take `CCN(CCOc1cccc(C)c1)C(=O)c1csc(CN(C)C)n1`: the “% Inhibition” value was -9% and the Z score amounted to 1.65.

For `Cc1nnc(OC2Cc3ccccc3C2)s1`, the “% Inhibition” value was -7% and the Z score was determined as 1.07.

As to `COc1cc(OC)cc([C@H](C(=O)O)N2CCc3ccccc3C(C)(C)C2)c1`, the “% Inhibition” value is on record as 0% and the Z score is on record as -0.02.

Consider `CCc1cc2c(N3CCCO3)ncnc2s1`, for which the “% Inhibition” value worked out at 1% and the Z score is -0.09.

As for `CCN1CC[C@H](NC(=O)C(C)(C)CO)C(F)(F)C1`, the “% Inhibition” value is -14% and the Z score is on record as 1.85.

`Cc1cc(C(=O)Nc2c(C(F)(F)F)nn(C)c2Cl)c(C)n1C`: the “% Inhibition” value is given as -2% and the Z score was found to be 0.27.

As for `CC(C)Oc1ccccc1-c1c[nH]c([C@H]2CC(=O)N(C3CCCC3)C2)n1`, the “% Inhibition” value is -11% and the Z score was 1.61.

In the case of `Nc1nccnc1C(=O)N[C@@H](c1ccccc1)c1ccc2c(c1)CCCO2`, the “% Inhibition” value is recorded as 1% and the Z score is -0.08.

Regarding `CCOCC(=O)Nc1cnn(-c2cccc(C)c2)c1CC`, the “% Inhibition” value was -7% and the Z score worked out at 0.87.

Values taken from ChEMBL document CHEMBL4888484, “Replenishing the malaria drug discovery pipeline: Screening and hit evaluation of the MMV Hit Generation Library 1 (HGL1) against asexual blood stage Plasmodium falciparum ,using a nano luciferase reporter read-out” (2022).
